Assay results as given in the supplement of paper PMC6206098.
± gives the uncertainty stated by the source. Shown are siRNA guide strands that differ only in the seed, positions 2 to 7.

Assays:
M565 = assay: cell viability relative to lipid-only control; higher = less toxic; settings: concentration: 10 nM; 96 h; Mus musculus
Protocol: (§1)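 Arrayed screen of 4096 siRNA duplexes, each carrying one of all possible 6mer seeds at guide-strand positions 2-7 in a fixed neutral 19mer scaffold (constant flanks: U at position 1, then ACAUGUAAACCA, plus a 3' AA overhang). The passenger strand is 2'-O-methylated at positions 1-2 so only the guide strand loads into RISC. Duplexes were reverse-transfected at 10 nM with RNAiMAX in triplicate in 384-well plates; viability was read by CellTiter-Glo ATP content 96 h after transfection. Values are % viability normalised to lipid-only wells (HeyA8, H460, M565) or to siNT1 (3LL).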

H460 = assay: as above; settings: concentration: 10 nM; 96 h; Homo sapiens
Protocol: as §1

HeyA8 = assay: as above; settings: concentration: 10 nM; 96 h; Homo sapiens
Protocol: as §1

3LL = assay: cell viability relative to siNT1 control; HeyA8 human ovarian and H460 human lung cancer; M565 mouse liver and 3LL mouse lung cancer; siNT1 is a non-toxic control siRNA; higher = less toxic; settings: concentration: 10 nM; 96 h; Mus musculus
Protocol: as §1
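Wherever cell viability relative to lipid-only control is given: reverse lipid transfection in 384-well plates, in triplicate, of duplexes on a non-toxic 19mer backbone with passenger strand 2′-O-methylated at positions 1 and 2, luminescence viability read-out.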
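Wherever cell viability relative to siNT1 control is given: Luminescence-based viability of cells reverse transfected in 384-well plates with lipid-complexed siRNAs built on a non-toxic 19mer backbone whose passenger strand carries 2′-O-methyl groups at positions 1 and 2, triplicates.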

Row | Sequence | cell viability (M565) [%] | cell viability (H460) [%] | cell viability (HeyA8) [%] | cell viability (3LL) [%]
1 | UAACCCAACAUGUAAACCAAA | 52.3 ± 4.6 | 80.7 ± 5.5 | 76.6 ± 5.5 | 83.4 ± 1.2
2 | UAACCCCACAUGUAAACCAAA | 27.6 ± 4.1 | 16.7 ± 4 | 7.76 ± 0.57 | 14.5 ± 1.8
3 | UAACCCGACAUGUAAACCAAA | 61.1 ± 4 | 92.5 ± 15 | 75.7 ± 5.8 | 71 ± 2.1
4 | UAACCCUACAUGUAAACCAAA | 53.8 ± 3.1 | 80.1 ± 14 | 66.7 ± 6 | 82.9 ± 6.3
5 | UAACCGAACAUGUAAACCAAA | 66.8 ± 7.7 | 67.4 ± 3.9 | 88.2 ± 1.7 | 89 ± 4.9
6 | UAACCGCACAUGUAAACCAAA | 15.8 ± 1.4 | 66.2 ± 6.9 | 36.8 ± 10 | 68.8 ± 3.5
7 | UAACCGGACAUGUAAACCAAA | 46.1 ± 6.5 | 63.4 ± 5.4 | 82.2 ± 3 | 79.3 ± 2.9
8 | UAACCGUACAUGUAAACCAAA | 22.8 ± 5 | 64.9 ± 5.9 | 86.4 ± 5.5 | 91.9 ± 6.5
9 | UAACCUAACAUGUAAACCAAA | 75.4 ± 10 | 71.5 ± 7.1 | 94.3 ± 7.9 | 94 ± 8.5
10 | UAACCUCACAUGUAAACCAAA | 41.7 ± 2.1 | 52.8 ± 3.2 | 50.9 ± 2.6 | 24.8 ± 5.5
11 | UAACCUGACAUGUAAACCAAA | 69.6 ± 8.3 | 64.1 ± 4.8 | 59.5 ± 7.1 | 100 ± 2.8
12 | UAACCUUACAUGUAAACCAAA | 77.2 ± 8.1 | 79.3 ± 9.9 | 65.3 ± 5.4 | 94.8 ± 6.1
13 | UAACGAAACAUGUAAACCAAA | 79.8 ± 4.8 | 65.3 ± 3.3 | 92 ± 5 | 92.7 ± 10
14 | UAACGACACAUGUAAACCAAA | 69 ± 7.6 | 65.7 ± 7.7 | 94 ± 9 | 93 ± 7.8
15 | UAACGAGACAUGUAAACCAAA | 81.4 ± 7.7 | 64.9 ± 4.1 | 88.3 ± 5.8 | 85.2 ± 13
16 | UAACGAUACAUGUAAACCAAA | 81.8 ± 16 | 61.2 ± 4.9 | 96.6 ± 7.3 | 98.9 ± 10
17 | UAACGCAACAUGUAAACCAAA | 73.9 ± 11 | 69.2 ± 2.3 | 95.7 ± 9.4 | 93.8 ± 13
18 | UAACGCCACAUGUAAACCAAA | 85.8 ± 8.4 | 62.5 ± 2.2 | 82.1 ± 7.1 | 66.1 ± 6.8
19 | UAACGCGACAUGUAAACCAAA | 86.2 ± 6.5 | 82.8 ± 19 | 101 ± 18 | 99.5 ± 10
20 | UAACGCUACAUGUAAACCAAA | 70.2 ± 3.8 | 62.5 ± 6.2 | 83 ± 8.7 | 81.8 ± 4.2
21 | UAACGGAACAUGUAAACCAAA | 90.8 ± 18 | 97 ± 17 | 87 ± 4 | 89.2 ± 4.7
22 | UAACGGCACAUGUAAACCAAA | 50.9 ± 9.4 | 42.6 ± 9.3 | 32.7 ± 1.5 | 41.6 ± 5.3
23 | UAACGGGACAUGUAAACCAAA | 61.8 ± 16 | 77.9 ± 16 | 70.5 ± 11 | 75.3 ± 3.2
24 | UAACGGUACAUGUAAACCAAA | 69 ± 4 | 64.2 ± 1.5 | 53.8 ± 9.3 | 75.6 ± 11
25 | UAACGUAACAUGUAAACCAAA | 72.2 ± 3.8 | 71.05 ± 0.61 | 86.7 ± 7.8 | 88.1 ± 5.7
26 | UAACGUCACAUGUAAACCAAA | 28.7 ± 3.5 | 68.6 ± 5 | 75.4 ± 4.4 | 75.6 ± 6.5
27 | UAAUUUGACAUGUAAACCAAA |  |  | 94.3 ± 3.4 | 
28 | UCCAGAUACAUGUAAACCAAA |  |  |  | 104 ± 36
29 | UGAUUUAACAUGUAAACCAAA |  | 73.4 ± 12 | 73.9 ± 6.9 | 74.2 ± 18
30 | UUUACCAACAUGUAAACCAAA |  |  | 100 ± 6.7 | 106 ± 15
